About 14,000 (4.5%) of roughly 310,000 compounds showed an effect of 50% or more. Effects have a minus sign here. Some of the results follow.
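Also: peak tail current of the secondary pulse compared with the same well before compound.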

Chain of human ether-à-go-go-related gene (hERG) potassium channel (Q12809 whole entry, looked up): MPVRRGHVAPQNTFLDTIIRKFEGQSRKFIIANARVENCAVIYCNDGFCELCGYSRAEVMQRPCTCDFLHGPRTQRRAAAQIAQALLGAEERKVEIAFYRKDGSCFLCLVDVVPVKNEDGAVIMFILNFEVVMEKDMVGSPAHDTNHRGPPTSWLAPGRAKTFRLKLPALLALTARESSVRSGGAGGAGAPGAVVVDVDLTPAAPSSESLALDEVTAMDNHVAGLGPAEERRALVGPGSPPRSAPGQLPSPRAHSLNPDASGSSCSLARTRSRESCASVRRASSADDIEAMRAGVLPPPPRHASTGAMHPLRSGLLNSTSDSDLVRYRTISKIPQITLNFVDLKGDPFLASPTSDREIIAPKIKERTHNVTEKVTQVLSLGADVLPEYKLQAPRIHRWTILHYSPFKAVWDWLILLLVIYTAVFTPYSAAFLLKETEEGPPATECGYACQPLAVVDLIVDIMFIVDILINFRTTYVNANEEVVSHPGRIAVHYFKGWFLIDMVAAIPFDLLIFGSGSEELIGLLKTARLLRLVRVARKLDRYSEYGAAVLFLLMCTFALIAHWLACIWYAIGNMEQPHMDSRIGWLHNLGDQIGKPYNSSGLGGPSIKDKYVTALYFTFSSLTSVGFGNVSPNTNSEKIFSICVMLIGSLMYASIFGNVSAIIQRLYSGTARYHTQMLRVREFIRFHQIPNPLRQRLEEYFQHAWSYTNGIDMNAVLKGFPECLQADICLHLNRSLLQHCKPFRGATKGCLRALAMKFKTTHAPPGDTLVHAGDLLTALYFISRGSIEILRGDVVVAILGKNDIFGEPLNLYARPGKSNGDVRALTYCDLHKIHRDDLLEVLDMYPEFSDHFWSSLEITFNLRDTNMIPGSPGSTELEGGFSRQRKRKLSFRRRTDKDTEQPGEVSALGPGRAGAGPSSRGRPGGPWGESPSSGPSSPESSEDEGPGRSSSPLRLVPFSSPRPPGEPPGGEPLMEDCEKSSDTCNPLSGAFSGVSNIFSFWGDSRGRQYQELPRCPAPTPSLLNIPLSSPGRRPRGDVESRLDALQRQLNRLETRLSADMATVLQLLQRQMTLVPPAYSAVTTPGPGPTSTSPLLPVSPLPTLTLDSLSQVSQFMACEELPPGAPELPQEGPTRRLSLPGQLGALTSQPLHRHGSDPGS

This experiment has as its target human ether-à-go-go-related gene (hERG) potassium channel (human, UniProt Q12809). The experiment can be described thus: primary screen, population patch clamp on CHO cells stably expressing hERG.
Consider `O=C(N1CCOCC1)N1CCN(S(=O)(=O)c2ccc(Cl)cc2)C1`, for which the “hERG current change (%, negative = inhibition) at 10uM” value was 23.8%. Regarding `CN(C)c1ccc(/C=N/NC(=O)CNC(=O)c2ccncc2)cc1`, the “hERG current change (%, negative = inhibition) at 10uM” value is recorded as -1.21%. On to `CCCNC(=O)c1nc(C)c(C)nc1C(=O)Nc1cccc(Cl)c1`, for which the “hERG current change (%, negative = inhibition) at 10uM” value is given as -13.7%.

Regarding `O=Cc1ccc(OC(=O)c2cc(Cl)nc3ccccc23)cc1`, the “hERG current change (%, negative = inhibition) at 10uM” value is 18%.

`O=C(COC(=O)c1ccccc1O)Nc1cccc2ccccc12`: the “hERG current change (%, negative = inhibition) at 10uM” value is -1.62%. `O=C(O)CC(C(=O)Nc1ccc(Cl)c(Cl)c1)C1CCCO1` (stereo not drawn): the “hERG current change (%, negative = inhibition) at 10uM” value was -4.64%. Under `O=C(O)C1CCN1C1CCCCC1` (stereo not drawn) stands 5.54%; under `O=S(=O)(O)c1nc2ccccc2n1Cc1ccc(Cl)cc1Cl`, 8.08%; under `CC(=O)c1ccc(N/C=C/C(=O)c2ccc(Br)cc2)cc1`, 13.9%. `CC(C)(Cc1ccc(O)cc1)NC(=O)SCc1ccccc1`: the “hERG current change (%, negative = inhibition) at 10uM” value is on record as -10.4%.

As for `CSc1ccc(CC(=O)N2CCC(n3nccc3NC(=O)C3CC3)CC2)cc1`, the “hERG current change (%, negative = inhibition) at 10uM” value is reported as -8.47%. Under `CNC(=O)c1ccsc1NC(=O)C1CCN(S(=O)(=O)c2ccc(Cl)s2)CC1` stands -54.9%; under `COc1cc(CC(=O)OCc2cccc([N+](=O)[O-])c2)cc(OC)c1OC`, -18.3%. `CCN(CC)c1ccc(C2C3CCCCC3(O)CCN2CC(=O)N2CCCCC2)cc1` (stereo not drawn): the “hERG current change (%, negative = inhibition) at 10uM” value is -2.84%. In the case of `COc1ccc(CNC(=O)C2CCC(CNS(=O)(=O)c3ccccc3)CC2)cc1` (stereo not drawn), the “hERG current change (%, negative = inhibition) at 10uM” value was determined as 2.42%. For `CCc1c(C)sc(NC(=O)c2ccco2)c1C(=O)N1CCCCC1`, the “hERG current change (%, negative = inhibition) at 10uM” value came to 5.5%. Under `Cc1ccc(-c2cc(C(=O)NCCN3CCOCC3)c3ccccc3n2)o1` stands -3.84%; under `N#CCCn1cc(/C=C/C(=O)O)c(-c2ccc(F)cc2)n1`, 13%. With `CCOC(=O)c1c(SC)n(-c2ccccc2)c(=S)n(-c2ccccc2)c1=O`, the “hERG current change (%, negative = inhibition) at 10uM” value was found to be 17.6%. Turning to `CCN(CC(=O)NC(=O)Nc1ccccc1F)Cc1ccccc1`, the “hERG current change (%, negative = inhibition) at 10uM” value turned out to be 12.4%.

In the case of `Cc1ccc2oc(=O)n(CC(=O)c3ccc(F)cc3)c2c1`, the “hERG current change (%, negative = inhibition) at 10uM” value amounted to 14.9%. Under `COc1ccc(-c2nnc(SCC#N)o2)cc1` stands 11.3%. Regarding `O=C(Nc1ccc(-c2nnc3n2CCCCC3)cc1)c1cc2ccccc2o1`, the “hERG current change (%, negative = inhibition) at 10uM” value is -71.8%.

In the case of `CC(=O)OC1=C(O)C(=O)c2ccccc2C1=O`, the “hERG current change (%, negative = inhibition) at 10uM” value was -6.46%. Take `COc1ccc(CN(CC(=O)NCc2ccc(F)cc2)C(=O)CCC(=O)Nc2ccccn2)cc1`: the “hERG current change (%, negative = inhibition) at 10uM” value is reported as -28.2%.

Take `Cc1nn(C(C)(C)C)c(OC(=O)c2cccs2)c1S(=O)(=O)c1ccccc1`: the “hERG current change (%, negative = inhibition) at 10uM” value is given as 0.316%. Take `O=C(CCCSc1nc2ccccc2[nH]1)Nc1nnc(C2CC2)s1`: the “hERG current change (%, negative = inhibition) at 10uM” value is given as -1.62%.

As for `C=CCc1cc(Cl)ccc1OCCN(C)C.O=C(O)C(=O)O`, the “hERG current change (%, negative = inhibition) at 10uM” value is reported as -42%. Regarding `O=C1[C@H]2[C@@H](c3ccc(F)cc3)N3C(=O)N(c4cccc(Br)c4)C(=O)[C@@]3(Cc3ccccc3)[C@H]2C(=O)N1C1CCCCC1`, the “hERG current change (%, negative = inhibition) at 10uM” value was 12%. Take `CCCSc1cc(Cl)nc(N)n1`: the “hERG current change (%, negative = inhibition) at 10uM” value is recorded as -9.06%. The value for `Cc1ccc(NC(=O)CSCC(=O)N2CCN(Cc3ccc4c(c3)OCO4)CC2)cc1` was -25.9%; that for `O=C(Nc1ccccc1)Nc1nc(-c2ccc(F)c(F)c2)cs1` was 16.3%. As for `Cl.ClCCNc1nc2ccc(Cl)cc2[nH]1`, the “hERG current change (%, negative = inhibition) at 10uM” value is given as 11.3%. Regarding `COc1ccc(OC)c(NC(=O)CCN2CCN(Cc3ccccc3)CC2)c1.Cl`, the “hERG current change (%, negative = inhibition) at 10uM” value is reported as -32.9%. Take `Cc1ccc(NC(=O)C(SCC(=O)O)c2ccccc2)cc1C` (stereo not drawn): the “hERG current change (%, negative = inhibition) at 10uM” value was -3.86%. As to `CC(C)C[C@H](NC(=O)[C@@H]1Cc2c([nH]c3ccccc23)C2c3ccccc3C(=O)N21)C(=O)NCC1CCCO1` (stereo partly drawn), the “hERG current change (%, negative = inhibition) at 10uM” value is given as -14.2%. On to `O=C(CCn1c(=O)oc2ccccc21)NCCC1=CCCCC1`, for which the “hERG current change (%, negative = inhibition) at 10uM” value stood at 13.3%.

Turning to `CN1CCC(N(C)C(=O)COc2ccc(S(=O)(=O)N3CCOCC3)cc2)CC1`, the “hERG current change (%, negative = inhibition) at 10uM” value is recorded as 15.4%. Under `O=C1CCCC2=C1C(c1ccccc1)CC(=O)N2c1ccccc1` (stereo not drawn) stands 7.02%.

Regarding `CCCCCc1ccc(-c2cn(CC3CCCCC3)nn2)cc1`, the “hERG current change (%, negative = inhibition) at 10uM” value is given as 19.1%.

As for `Cc1ccc(NC(=O)Cn2nc(C)c(S(=O)(=O)N(C)C)c2C)cc1C`, the “hERG current change (%, negative = inhibition) at 10uM” value is 17.1%. Under `Cc1c(NC(=S)NC(=O)c2ccc(COc3ccccc3)cc2)cccc1C(=O)O` stands 15.9%. With `COc1cccc(NC(=O)N2CCCc3ccccc32)c1`, the “hERG current change (%, negative = inhibition) at 10uM” value is listed as -7.3%. With `Cc1nn(C)cc1/C=C1\SC(=S)NC1=O`, the “hERG current change (%, negative = inhibition) at 10uM” value came out at 18.4%.

Consider `CCCCn1c(O)c(C(CC)=NCCN2CCOCC2)c(=O)[nH]c1=O`, for which the “hERG current change (%, negative = inhibition) at 10uM” value is -15.3%. With `CC(=O)c1ccc(OCC(O)CN2CC(C)OC(C)C2)cc1.Cl` (stereo not drawn), the “hERG current change (%, negative = inhibition) at 10uM” value was determined as 8.19%.

Regarding `Cc1ccc(C)n1CCN1CCN(S(=O)(=O)c2ccc(F)cc2F)CC1`, the “hERG current change (%, negative = inhibition) at 10uM” value came to 5.1%. As for `Cc1oc(-c2cccs2)nc1CN1CCN(C2CCCC2)C(CCO)C1` (stereo not drawn), the “hERG current change (%, negative = inhibition) at 10uM” value was -11.2%. Turning to `C[C@@H](CN=[N+]=[N-])CN1CC[C@H](NC(=O)OCc2ccccc2)CCC1=O`, the “hERG current change (%, negative = inhibition) at 10uM” value is listed as -35.6%.

For `Cc1ccc(N=Nc2c(C)[nH]n(C(N)=S)c2=O)cc1`, the “hERG current change (%, negative = inhibition) at 10uM” value was 16.2%. For the molecule `COc1cccc(NC(=O)c2cncs2)c1`, the “hERG current change (%, negative = inhibition) at 10uM” value is given as 18.9%. Take `C=CCn1c(=O)c2ccccc2n2c(SCC(=O)O)nnc12`: the “hERG current change (%, negative = inhibition) at 10uM” value is given as 20.7%. Turning to `CCC(C)(C)C1CCC2(CC1)NC(=O)N(CC(=O)N1CCN(C(=O)c3ccco3)CC1)C2=O` (stereo not drawn), the “hERG current change (%, negative = inhibition) at 10uM” value is reported as -14.3%. Regarding `CC(C)N(Cc1nc(-c2ccccc2)no1)C(=O)CN(C)S(=O)(=O)c1ccc(Br)cc1`, the “hERG current change (%, negative = inhibition) at 10uM” value was -11.6%. As for `CCOC(=O)C1(C)NC(c2ccc(N(C)C)cc2)C2C(=O)N(c3ccc(OC)cc3)C(=O)C21` (stereo not drawn), the “hERG current change (%, negative = inhibition) at 10uM” value worked out at 4.84%. For the molecule `CCCc1nc2c(C)ccc(C)c2c(N)c1CC`, the “hERG current change (%, negative = inhibition) at 10uM” value is recorded as -62.5%. Regarding `CCOC(=O)c1c(C)n(-c2ccc(C)cc2)c2c(C(C(C)=O)C(=O)O)c(Br)c(O)c(O)c12` (stereo not drawn), the “hERG current change (%, negative = inhibition) at 10uM” value was -0.463%. The value for `CC(C)c1nnc(NC(=O)CCC(=O)N2CCN(Cc3ccccc3)CC2)s1` was 4.17%. Consider `O=C(Nc1ccccc1)c1ccc(Br)c(S(=O)(=O)Nc2cccnc2)c1`, for which the “hERG current change (%, negative = inhibition) at 10uM” value stood at 14.9%.

As for `CNC(=O)CSc1nnc(-c2ccncc2)n1Cc1ccccc1`, the “hERG current change (%, negative = inhibition) at 10uM” value came to 9.26%.

Consider `CC(C)(C)OC(=O)[C@H](Cc1ccccc1)NC(=O)c1nc[nH]c1C(=O)NC1CC[NH2+]CC1.[Cl-]`, for which the “hERG current change (%, negative = inhibition) at 10uM” value is on record as 4.16%. With `CCC(C(=O)NCCc1ccc(OC)c(OC)c1)n1nc(C)n2c(cc3occc32)c1=O` (stereo not drawn), the “hERG current change (%, negative = inhibition) at 10uM” value was -7.26%. Regarding `Cc1ccc2nc(NC(=O)c3cccs3)sc2c1`, the “hERG current change (%, negative = inhibition) at 10uM” value is -2.84%. As to `CCC(=O)CCC(=O)c1ccc2ccccc2c1`, the “hERG current change (%, negative = inhibition) at 10uM” value was determined as 4.48%. Consider `COc1ccc2sc(-c3ccccc3OC)c(-c3ccc(OC)c(F)c3)c2c1`, for which the “hERG current change (%, negative = inhibition) at 10uM” value was 10.8%. Regarding `CCN(CC)CCN(C(=O)C1=COCCO1)c1nc2ccc(C)cc2s1.Cl`, the “hERG current change (%, negative = inhibition) at 10uM” value is recorded as -78.3%. The value for `CSc1c(CC(=O)Nc2ccccc2Cl)n(Cc2ccccc2)c2ccccc12` was 8.86%; that for `COC(=O)N/N=C\c1ccccc1OC/C=C/c1ccccc1` was 6.71%; that for `COC(=O)CSc1nnc([C@H](Cc2ccccc2)NC(=O)OC(C)(C)C)o1` was -15.8%. On to `Cc1cc(Cl)ccc1OCC(=O)OCC(=O)N(CC(C)C)c1c(N)n(Cc2ccccc2)c(=O)[nH]c1=O`, for which the “hERG current change (%, negative = inhibition) at 10uM” value is -4.74%. On to `Cc1c(C(=O)N2CC3(CC(c4cccc(NC(=O)CC(c5ccccc5)c5ccccc5)c4)=NO3)C[C@@H]2C(N)=O)cc([N+](=O)[O-])cc1[N+](=O)[O-]` (stereo partly drawn), for which the “hERG current change (%, negative = inhibition) at 10uM” value is listed as 7.4%. Regarding `O=C(O)c1ccc(S(=O)(=O)NC2CCCCC2)cc1`, the “hERG current change (%, negative = inhibition) at 10uM” value was 29.4%. Under `O=C(Nc1ccc2c(c1)CCC2)c1ccc(Br)s1` stands 38.7%; under `O=C(/C=C/c1ccccc1)Nc1ccc(CN2CCOCC2)cc1`, -62.5%. Turning to `O=C1COc2ccc(C(=O)NCc3ccco3)cc2N1`, the “hERG current change (%, negative = inhibition) at 10uM” value is listed as 3.07%. Under `CCC1CCCCN1CCCNC(=O)C(C)n1nc(C)c2sc3ccccc3c2c1=O` (stereo not drawn) stands -69.8%. Consider `CCc1ccc(CCC(=O)Nc2ccc(C(C)=O)cc2)o1`, for which the “hERG current change (%, negative = inhibition) at 10uM” value is 3%. Take `CCc1noc(C)c1C(=O)Nc1sc(C(=O)N(C)C)c(C)c1C(=O)OC`: the “hERG current change (%, negative = inhibition) at 10uM” value is listed as -5.03%.

Take `Cc1ccc(F)cc1S(=O)(=O)Nc1cccc(C(=O)N2CCCC(C(N)=O)C2)c1` (stereo not drawn): the “hERG current change (%, negative = inhibition) at 10uM” value is 2.48%. In the case of `CCN(Cc1ccccc1)C(=O)Cc1ccc(OC)c(S(=O)(=O)N2CCOCC2)c1`, the “hERG current change (%, negative = inhibition) at 10uM” value was -25.1%. The value for `CCn1c(/C=C/c2cc[n+](C)cc2)nc2ccccc21.[I-]` was 15%; that for `Cc1c(C(c2ccc(Br)cc2)c2c(O)c3ccccc3oc2=O)c(=O)n(-c2ccccc2)n1C` (stereo not drawn) was -5.45%. `COc1cc(/C=C2/SC(=O)N(Cc3ccccc3)C2=O)ccc1OCc1ccncc1`: the “hERG current change (%, negative = inhibition) at 10uM” value is 9.37%. The value for `Clc1ccc(C2Nc3cccc4cccc(c34)N2)cc1` was -2.37%; that for `Cc1ccc(S(=O)(=O)/N=C2/C=C(Sc3ncn[nH]3)C(=O)c3ccccc32)cc1` was -7.34%; that for `Cc1ccc(NC(=O)CN(C)C(=O)CSc2nc(C)cc(C)n2)cc1` was 5.43%. As for `O=C(Nc1ccc(N2CCN(C(=O)c3ccco3)CC2)cc1)c1cccnc1Cl`, the “hERG current change (%, negative = inhibition) at 10uM” value amounted to 4.01%.

The values above are taken from PMC4336329 (PLoS ONE, 2015).
